Results from the RNAGym collection of RNA variant scans (doi:10.1073/pnas.2313332121).
This sample is rich in variants without activity.

B1: TPR 5TU (parent)
chain: GGAUCUUCUCGAUCUAACAAAAAAGACAAAUCUGCCACAAAGCUUGAGAGCAUCUUCGGAUGCAGAGGCGGCAGCCUUCGGUGGCGCGAUAGCGCCAACGUUCUCAACUAUGACACGCAAAACGCGUGCUCCGUUGAAUGGAGUUUAUCAUG

Variants of: B1
Assay: polymerase ribozyme fitness, log enrichment relative to wild type (log ratio); higher = more active; in vitro selection for triplet polymerase activity
Method in brief: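 Each subunit of a heterodimeric triplet polymerase ribozyme was represented by a PCR-built, transcribed mutant library that underwent triplicate single-round in vitro selection with frozen incubation at −7 °C. Extended constructs were recovered by gel excision, streptavidin-bead capture and RT-PCR, and Illumina sequencing of input and output libraries kept genotypes with ≥10 input reads and ≥1 read per output. Fitness is the logarithm of genotype enrichment relative to wild-type enrichment, from inverse-variance-weighted replicate averages, with a logarithm base of 2.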

Row | Variant | polymerase ribozyme fitness (log ratio)
1 | GGAUCCUCUAGAACUAACAAAAAAGACAAAUCUGGGGCAAAGCUUGAGAGCAUCUUCGGAUGCAGAGGCGGCAGCCUUCGUUCGCGCGAUAGCGCCAACGUUCUCAACUAUGACACGCAAAACGCGUGCUCCGUUGAAUGGAGUUUAUCAUG [U6C C10A U13A C35G C36G A37G G81U G83C] | ≤ -4.2
2 | GGAUCCUCUCGAUAUAGCAAAAAAGACAAGUCUGCCACAAAGCUUGAGAGCAUCAUCGGAUGCAGAGGCGGCAGCCUUCGGUGGCGCGAUAGCGACAACAUUCUGAACUAUGACACGCAAAACGCGUGCUCCGUUGAAGGGCGUUUAUCAUG [U6C C14A A17G A30G U55A C95A G100A C105G U139G A142C] | ≤ -4.2
3 | GGAUCCUCUCGAUGUAACAAAAAAGACAAAUCUGCCACACAGCUUGAGAGCUUCUUCGGAUGCAGAGGCGGCAGCCUUCGGUGGCGCGAUUGCGCCAACGUUCUCAACUAUGACACGCAAAACGCGUGCUCCGUUGAAUGGAGUUUAUCAUG [U6C C14G A40C A52U A91U] | ≤ -4.2
4 | GGAUCCUCUCGAUCUAAGAGAAAAGACAAAUCUGCCACAUAGCUUGAGAGCAUCUUCGGAUGCAGAGUCGGCAGCCUUCGGUGGCGCGAUAACGCCGACGUUCUCAACUAUGACACGCAAAACGCGUGCUCCGUUGAAUGGAGUUUAUCAUG [U6C C18G A20G A40U G68U G92A A97G] | ≤ -4.2
5 | GGAUCCUCUCGAUCUAAGAAAAAAGACCAAUCUGCCACAAAGCUGGAGAGCAUCUUCGAAUGCAAAGGCGGCCGCCUUCGGUGGCGCGAUUGCCCCAACGUUCUCAACUAUGACACGCAAAACGCGUGCUCCGUUGAAUGGAGUUUAUCAUG [U6C C18G A28C U45G G59A G65A A73C A91U G94C] | ≤ -4.2
6 | GGAUCCUCUCGAUCUAACAAAAAAGAUAAAUCUGCCACAAAGCUUGAGACCGUCUUCAGAUGCAGAGGCGGCAGCCUUCGGUGGCGUGAUAGCGCCAACGUUCUCAACUAUGACACGCAAAACGCGUGCUCCGUUGAAUGGAGUUUAUCAUG [U6C C27U G50C A52G G58A C87U] | ≤ -4.2
7 | GGAUCCUCUCGAUCUAACAAAAAAGAUAAAUCAGCCACAAAGCUUGAGAGCAUCUUCGGAUGCAGAGGCGGCGGCCUUCGGUGGCGCGAAAACGCCAACGUUCUGAACUAUGACACGCAAGACGCGUGCUCCGUUGCAUGGAGUUGAUCAUG [U6C C27U U33A A73G U90A G92A C105G A121G A137C U146G] | ≤ -4.2
8 | GGAUCCUCUCGAUCUAACAAAAAAGACAAAUCUGUCACAAAGCUUGAGAGCAUCUUCGAAUGCAGCGGCGGCAGCCUUCGGUGUCGCGAUAGUGCCAUCAUUCUCCACUAUGACACGCAAAACGCGUGCUCCGUUGAAUGGCGUUUAUCAUG [U6C C35U G59A A66C G84U C93U A98U G100A A106C A142C] | ≤ -4.2
9 | GGAUCCUCUCGAUCUAACAAAAAAGACAAAUCUGCCAAAAAGCUUGAGAGCAUUUUCGGAUGCAGAGGCGGCAGCCUUCGGUGGCGCGAUAGCGUCAACGUUAUCAACUAUGACACGCAAAACGCGUGCUCCGUUGAAUGGAGUUUAACAUC [U6C C38A C54U C95U C103A U148A G152C] | ≤ -4.2
10 | GGAUCCUCUCGAUCUAACAAAAAAGACAAAUCUGCCAUAAAGCUUGAGAGCAUCUUCGGAUGCAGAGGCGGCAGGCUUCGGAGGCGCGAUAGCGCCAACGUUCUCAGCUAUGACACGCAGAACGCGUGCUCCAAUGAAUGGAGUUUAUCAUG [U6C C38U C75G U82A A107G A120G G133A U134A] | ≤ -4.2
11 | GGAUCCUCUCGAUCUAACAAAAAAGACAAAUCUGCCACAAAGCUUGAGAGCAUGUUCGGAUGCAGAGGCGGCAGCCUUCGGUGGCGCGAUAGAGCCAACGUUCUCAACUAUGACAGGCAAAACGCGUGCUCCGUUGAAUGAAGUUUAUCAUG [U6C C54G C93A C116G G141A] | -4.17
12 | GGAUCCUCUCGAUCUAACAAAAAAGACAAAUCUGCCACAAAGCUUGAGAGCAUGAUCGGAUGCAGAGGCGGCAGCCUUCGGUGGCGCGAUAGCACCAACGUUCUCAACUAUGACACGCAAAACGCGUGCUCUGUUGAAUGGAGUUUAUCAUG [U6C C54G U55A G94A C132U] | ≤ -4.2
13 | GGAUCCUCUCGAUCUAACAAAAAAGACAAAUCUGCCACAAAGCUUGAGAGCAUUUUCGGAUGCAGAGGCGGCAGCUUUCGGUGGCGCGAUAGCGCCAACGUUCUCAACUAUGACACGCAAAACGCGUGCUCCGUUGAAUGGAGUUUAUCAUG [U6C C54U C76U] | -2.15
14 | GGAUCCUCUCGAUCUAACAAAAAAGACAAAUCUGCCACAAAGCUUGAGAGCAUCUUAGGUUGCAGAGGCGGCAGCCUUCGGUGGCGCGAUAGCGCCAACGUUCUCAACUCUGACACGCAAAACGCGUGCUACGUUGAAUGGAGUUUAUCAUG [U6C C57A A60U A110C C131A] | ≤ -4.2
15 | GGAUCCUCUCGAUCUAACAAAAAAGACAAAUCUGCCACAAAGCUUGAGAGCAUCUUGGGAUGCAGAGGCGGCAGCCUUCGGUGGCGGGAUAGCGCCAACGUUCUCAACUAUGACACGCAAAACGCGUGCUCCGUUGAAUGGAGUUUAUCAUG [U6C C57G C87G] | ≤ -4.2
16 | GGAUCCUCUCGAUCUAACAAAAAAGACAAAUCUGCCACAAAGCUUGAGAGCAUCUUCGGAUGUAGAGGCGGCAGCCUUCGGUGGCGCGAUAGCGCCAACGUUCUCAACUAUGACACGCAAAACGCGUGCUCCGUUGAGUGGAGUUUAUCAUG [U6C C63U A138G] | -4.08
17 | GGAUCCUCUCGAUCUAACAAAAAAGACAAAUCUGCCACAAAGCUUGAGAGCAUCUUCGGAUGCAGAGGCGGCAGCCUUCGGUGGCGAGAUAGCACCAACGUUCUCAACUAUGACACGCAAAACGCGUGCUCCGUUGAAUGGAGUUUAACAUG [U6C C87A G94A U148A] | ≤ -4.2
18 | GGAUCCUCUCGAUCUAACAAAAAAGACAAAUCUGCCACAAAGCUUGAGAGCAUCUUCGGAUGCAGAGGCGGCAGCCUUCGGUGGCGCGAUAGCGCCAACGUUCUGAACUAUGACACGCAAAACGCGUGCUCCGUUGAAUGGAGCUUAUCAUA [U6C C105G U144C G152A] | -3.94
19 | GGAUCCUCUCGAUCUAACAAAAAAGACAAAUCUGCCACAAAGCUUGAGAGCAUCUUCGGAUGCAGAGGCGGCAGCCUUCGGUGGCGCGAUAGCGCCAACGUUCUCAACUAUGACACGCAAAACGCGUGGUCCGUUGAAUGGAGUUUAUCAUG [U6C C129G] | -3.13
